Assay results as given in the supplement of paper PMC8948288.
Shown are siRNA guide strands that differ only in the seed, positions 2 to 7.

What was measured:
H4 = experiment: cell viability relative to siNT1 (ATP content); H4 human neuroglioma and GL261 mouse glioma; higher = less toxic; conditions: siRNA concentration 10 nM; 96 h; human
GL261 = experiment: as above; conditions: siRNA concentration 25 nM; 96 h; mouse
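Note: cells reverse transfected with siRNA duplexes via lipid reagent, ATP read by luminescence, triplicate wells, values scaled to mean viability with non-targeting control siNT1.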

Sequence	cell viability (H4)	cell viability (GL261)
UUCAGAGACAUGUAAACCA	79%	49.9%
UUCAGAUACAUGUAAACCA	75.5%	47.3%
UUCAGCAACAUGUAAACCA	54.8%	34.1%
UUCAGCCACAUGUAAACCA	45.2%	17.8%
UUCAGCGACAUGUAAACCA	109%	38.7%
UUCAGCUACAUGUAAACCA	59.6%	13.8%
UUCAGGAACAUGUAAACCA	99.5%	40.4%
UUCAGGCACAUGUAAACCA	59.3%	24.4%
UUCAGGGACAUGUAAACCA	89.6%	19%
UUCAGGUACAUGUAAACCA	84.3%	21.1%
UUCAGUAACAUGUAAACCA	89.9%	44.3%
UUCAGUCACAUGUAAACCA	103%	29.6%
UUCAGUGACAUGUAAACCA	87.3%	44.4%
UUCAGUUACAUGUAAACCA	53.4%	26.4%
UUCAUAAACAUGUAAACCA	106%	36.1%
UUCAUACACAUGUAAACCA	101%	53.1%
UUCAUAGACAUGUAAACCA	74.2%	53.5%
UUCAUAUACAUGUAAACCA	81.4%	50.6%
UUCAUCAACAUGUAAACCA	79.2%	37.7%
UUCAUCCACAUGUAAACCA	62.8%	25.1%
UUCAUCGACAUGUAAACCA	94.6%	70.7%
UUCAUCUACAUGUAAACCA	71.5%	23.4%
UUCAUGAACAUGUAAACCA	75.6%	48.2%

Sequence	cell viability (H4)	cell viability (GL261)
UUCAUGCACAUGUAAACCA	67.1%	20.4%
UUCAUGGACAUGUAAACCA	82.9%	45.5%
UUCAUGUACAUGUAAACCA	109%	34%
UUCAUUAACAUGUAAACCA	93.8%	63.6%
UUCAUUCACAUGUAAACCA	101%	41%
UUCAUUGACAUGUAAACCA	75%	57.5%
UUCAUUUACAUGUAAACCA	100%	48.9%
UUCCAAAACAUGUAAACCA	115%	79.1%
UUCCAACACAUGUAAACCA	84%	61.6%
UUCCAAGACAUGUAAACCA	74.6%	77.9%
UUCCAAUACAUGUAAACCA	87.1%	69.2%
UUCCACAACAUGUAAACCA	89.4%	45.5%
UUCCACCACAUGUAAACCA	57.3%	31.1%
UUCCACGACAUGUAAACCA	93.3%	48.3%
UUCCACUACAUGUAAACCA	69.9%	53%
UUCCAGAACAUGUAAACCA	89.9%	43.4%
UUCCAGCACAUGUAAACCA	41.8%	26%
UUCCAGGACAUGUAAACCA	70.1%	39%
UUCCAGUACAUGUAAACCA	67.9%	41.5%
UUCCAUAACAUGUAAACCA	110%	31.2%
UUCCAUCACAUGUAAACCA	68.8%	45.2%
UUCCAUGACAUGUAAACCA	91.4%	37.2%
UUCCAUUACAUGUAAACCA	118%	31.8%

Sequence	cell viability (H4)	cell viability (GL261)
UUCCCAAACAUGUAAACCA	92.4%	45.8%
UUCCCACACAUGUAAACCA	65.7%	56%
UUCCCAGACAUGUAAACCA	85.5%	42.5%
UUCCCAUACAUGUAAACCA	93.2%	35.6%
UUCCCCAACAUGUAAACCA	95.3%	42.6%
UUCCCCCACAUGUAAACCA	48.5%	31%
UUCCCCGACAUGUAAACCA	82.7%	54.7%
UUCCCCUACAUGUAAACCA	65.7%	29.2%
UUCCCGAACAUGUAAACCA	92.1%	66.2%
UUCCCGCACAUGUAAACCA	50%	30.6%
UUCCCGGACAUGUAAACCA	67.4%	54.8%
UUCCCGUACAUGUAAACCA	94%	56.8%
UUCCCUAACAUGUAAACCA	120%	65.9%
UUCCCUCACAUGUAAACCA	73.9%	37.2%
UUCCCUGACAUGUAAACCA	89.9%	56.1%
UUCCCUUACAUGUAAACCA	90.3%	73.3%
UUCCGAAACAUGUAAACCA	83.5%	63%
UUCCGACACAUGUAAACCA	90.6%	39.2%
UUCCGAGACAUGUAAACCA	110%	55.2%
UUCCGAUACAUGUAAACCA	88.7%	54.9%
UUCCGCAACAUGUAAACCA	114%	44.6%
UUCCGCCACAUGUAAACCA	77.5%	20.6%
UUCCGCGACAUGUAAACCA	94.5%	51.3%

Sequence	cell viability (H4)	cell viability (GL261)
UUCCGCUACAUGUAAACCA	69%	32.3%
UUCCGGAACAUGUAAACCA	86.6%	50.8%
UUCCGGCACAUGUAAACCA	44.4%	17.4%
UUCCGGGACAUGUAAACCA	100%	27.9%
UUCCGGUACAUGUAAACCA	40.8%	34.2%
UUCCGUAACAUGUAAACCA	93.9%	51.6%
UUCCGUCACAUGUAAACCA	99%	32.9%
UUCCGUGACAUGUAAACCA	81.6%	57.2%
UUCCGUUACAUGUAAACCA	110%	28.7%
UUCCUAAACAUGUAAACCA	118%	51.6%
UUCCUACACAUGUAAACCA	102%	29.4%
UUCCUAGACAUGUAAACCA	79.7%	35%
UUCCUAUACAUGUAAACCA	97.3%	26.4%
UUCCUCAACAUGUAAACCA	85.3%	42.1%
UUCCUCCACAUGUAAACCA	43.3%	31.5%
UUCCUCGACAUGUAAACCA	104%	49.1%
UUCCUCUACAUGUAAACCA	63.3%	30.2%
UUCCUGAACAUGUAAACCA	107%	42.5%
UUCCUGCACAUGUAAACCA	51.9%	11.4%
UUCCUGGACAUGUAAACCA	76.9%	21.6%
UUCCUGUACAUGUAAACCA	41.2%	15.2%
